Source: PubChem BioAssay AID504832 (National Center for Advancing Translational Sciences (NCATS), 2011)
The whole screen tested about 310,000 compounds, of which about 18,000 (5.8%) were called active. The inconclusive results got no clear call from the source; some entries with a clear call stand among them for comparison. Calls come from the whole dose curve; as a rule, active = well fitted inhibition curve with a large enough effect; inconclusive = small, poorly fitted or top-dose-only effect, or another doubt; inactive = no such curve, though single readings can be large or run the other way. Potencies of inconclusive entries are left out as doubtful fits.

experiment: Primary qHTS for delayed death inhibitors of the malarial parasite plastid, 48 hour incubation; conditions: P. falciparum luciferase growth in erythrocytes; series mostly up to 28.7 µM; activity change, negative = inhibition: at the top concentration
How it was run: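 Luminescence readout; reporter = integrated firefly luciferase in P. falciparum. RBC culture at 2% hematocrit, 0.1% parasitemia final, 37 C/5% CO2; decreased signal taken as growth inhibition.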
% is set by controls: 0 for no effect and ±100 for the full control effect; potency is the fitted concentration of half-maximal effect; tags give direction and shape of the fitted curve.

**Q.** For `Cc1ccc(-n2nc3c(=O)n(CCCC(=O)NCCc4ccccc4C)nc(C)c3c2C)cc1`, which Potency is on record?
**A.** inconclusive [inhibitor, partial curve]

**Q.** For `Cc1cccc(NC(=O)Cn2c(=O)n3nc(CCn4nc(C)cc4C)nc3c3ccccc32)c1`, which Potency is on record?
**A.** inconclusive [inhibitor, partial curve, poor fit]

**Q.** For `COc1ccc(C(=O)OCC(=O)Nc2ccc(OC)c(S(=O)(=O)N3CCCCC3)c2)cc1[N+](=O)[O-]`, which “activity change, negative = inhibition” value is on record?
**A.** inactive: -21.3%

**Q.** With `COc1ccc(CN(C2CCCC2)S(=O)(=O)c2ccc(-n3cnnn3)cc2)cc1OC` as the compound, how does the Potency read?
**A.** inconclusive [inhibitor, single point]

**Q.** With `COc1cc2nc(CN3CCN(C(c4ccccc4)c4ccccc4)CC3)[nH]c(=O)c2cc1OC` as the compound, how does the Potency read?
**A.** inconclusive [inhibitor, partial curve]

**Q.** With `COc1ccc(NC(=O)/C(=C/c2ccc3c(c2)OCO3)NC(C)=O)cc1` as the compound, how does the “activity change, negative = inhibition” value read?
**A.** inactive: 61.4%

**Q.** For `Cc1ccc(C)c(N(CC(=O)NC2CCCC2)C(=O)CCCC(=O)Nc2ccccn2)c1`, which Potency is on record?
**A.** inconclusive [inhibitor, partial curve]

**Q.** Which Potency does the source give for `CCOc1cc(C(=O)Nc2cc(C)ccc2OC)ccc1OCC(=O)N1CCCCC1` here?
**A.** inconclusive [inhibitor, partial curve, poor fit]

**Q.** With `CC(Sc1nnc(-c2ccco2)n1C)C(=O)Nc1ccc(N2CCOCC2)cc1` (stereo not given) as the compound, how does the Potency read?
**A.** inconclusive [inhibitor, single point]

**Q.** Which Potency does the source give for `COc1cc(C(=O)OCCC(C)C)cc(OC)c1O` here?
**A.** inconclusive [inhibitor, partial curve, poor fit]

**Q.** Which “activity change, negative = inhibition” value does the source give for `O=C(Nc1cnccn1)Nc1ccc(Cl)cc1Cl` here?
**A.** inactive: 21%

**Q.** For `O=C(N/N=C\c1cn(-c2ccccc2)nc1-c1ccccc1)c1ccc2c(c1)OCO2`, which Potency is on record?
**A.** inconclusive [inhibitor, partial curve, poor fit]

**Q.** For `CC(C)Cc1nc(N2CCC(C(N)=O)CC2)c2nnn(Cc3ccccc3)c2n1`, which Potency is on record?
**A.** active: 14.7 µM

**Q.** Which Potency does the source give for `Cc1sc2ncnc(N3CCC(C(=O)Nc4cc(S(C)(=O)=O)ccc4Cl)CC3)c2c1C` here?
**A.** active: 9.28 µM

**Q.** With `O=C1CN(C(=O)COc2ccc(F)cc2Cl)c2ccccc2N1` as the compound, how does the Potency read?
**A.** inconclusive [inhibitor, partial curve]

**Q.** For `CCCCn1c(N)c(N(CCOC)C(=O)c2cc(-c3ccccc3Cl)nc3ccccc23)c(=O)[nH]c1=O`, which Potency is on record?
**A.** inconclusive [inhibitor, single point]

**Q.** For `N#C/C(=C\c1ccc(Oc2ccc(C(F)(F)F)cc2[N+](=O)[O-])cc1)c1nc2ccccc2[nH]1`, which Potency is on record?
**A.** inconclusive [inhibitor, partial curve, poor fit]

**Q.** With `O=C(O)C1c2ccccc2C(=O)N(Cc2ccc(F)cc2)C1c1ccncc1` (stereo not given) as the compound, how does the “activity change, negative = inhibition” value read?
**A.** inactive: -5.47%

**Q.** For `O=S(=O)(NC1CCCC1)OCC(Cl)(Cl)Cl`, which “activity change, negative = inhibition” value is on record?
**A.** inactive: 15.6%

**Q.** With `COc1ccc(NC(C)=O)cc1NC(=O)c1cccc(S(=O)(=O)N2CCN(Cc3ccccc3)CC2)c1` as the compound, how does the Potency read?
**A.** inconclusive [inhibitor, partial curve]

**Q.** With `CCCCOc1ccc(/C=C/C(=O)NCCc2nc3ccccc3[nH]2)cc1` as the compound, how does the Potency read?
**A.** inconclusive [inhibitor, partial curve, poor fit]

**Q.** With `O=C(Nc1cccc(C(=O)Nc2ccccc2F)c1)c1ccccc1` as the compound, how does the “activity change, negative = inhibition” value read?
**A.** inactive: 18.1%

**Q.** With `COc1ccc(/C=C/C(=O)Nn2cnnc2)cc1` as the compound, how does the “activity change, negative = inhibition” value read?
**A.** inactive: 2.73%

**Q.** With `COc1ccc(C2CC(c3cccs3)=NN2C(=O)COC(=O)C2CCCCC2)cc1OC` (stereo not given) as the compound, how does the Potency read?
**A.** inconclusive [inhibitor, partial curve]

**Q.** For `Cc1cccc(C(C)C)c1NC(=O)COC(=O)CN1C(=O)C2CC=CCC2C1=O` (stereo not given), which Potency is on record?
**A.** inconclusive [inhibitor, single point]

**Q.** With `Cc1ccc(N(C(=O)Cn2nnc(-c3cccs3)n2)C(C(=O)NC2CCCC2)c2ccncc2)cc1` (stereo not given) as the compound, how does the Potency read?
**A.** inconclusive [inhibitor, full curve, poor fit]

**Q.** Which Potency does the source give for `COc1cc(NC(=O)CN2CCC(C(N)=O)(N3CCCCC3)CC2)c(OC)cc1Cl` here?
**A.** inconclusive [inhibitor, partial curve]

**Q.** For `CCn1c(SCC(=O)c2ccc(Cl)cc2)nnc1-c1ccoc1C`, which Potency is on record?
**A.** inconclusive [inhibitor, single point]

**Q.** For `C[C@@H]1C[C@H]2[C@@H]3C[C@H](F)C4=CC(=O)C=C[C@]4(C)[C@@]3(Cl)[C@@H](O)C[C@]2(C)[C@H]1C(=O)COC(=O)C(C)(C)C`, which Potency is on record?
**A.** active: 1.04 µM

**Q.** For `Cc1occc(=O)c1OC(=O)Nc1ccc(Cl)c(Cl)c1`, which Potency is on record?
**A.** inconclusive [inhibitor, single point]

**Q.** With `CCc1cccc(CC)c1-n1c(SCC(=O)c2c(N)n(C)c(=O)n(C)c2=O)nnc1-c1cccnc1` as the compound, how does the “activity change, negative = inhibition” value read?
**A.** inactive: 3.08%

**Q.** With `O=C(NCc1ccccc1)C1=C[C@H](c2coc3ccccc3c2=O)C[C@H](OCCCCO)O1` as the compound, how does the Potency read?
**A.** inconclusive [inhibitor, single point]

**Q.** With `O=C(NC(=S)NNS(=O)(=O)c1ccccc1)c1cccnc1` as the compound, how does the “activity change, negative = inhibition” value read?
**A.** inactive: 25.8%

**Q.** With `Cc1ccc2ncnc(Oc3ncccc3NC(=O)C(C)(C)C)c2c1` as the compound, how does the Potency read?
**A.** inconclusive [inhibitor, single point]

**Q.** For `COc1ccc(C(=O)/C=C/c2ccccc2C(F)(F)F)cc1`, which Potency is on record?
**A.** inconclusive [inhibitor, single point]

**Q.** For `CNC(=O)C(NC(=O)CNC(=O)c1ccc(Cl)cc1)C(C)(C)C` (stereo not given), which “activity change, negative = inhibition” value is on record?
**A.** inactive: 10.7%

**Q.** Which Potency does the source give for `COC(=O)c1ccc(NC(=O)c2ccc(NC(=O)c3ccco3)cc2)cc1` here?
**A.** inconclusive [inhibitor, partial curve]

**Q.** With `CCc1ccc(OCC(=O)N/N=C/c2ccc(OS(=O)(=O)c3ccc(C)cc3)c(OC)c2)cc1` as the compound, how does the Potency read?
**A.** inconclusive [inhibitor, single point]

**Q.** With `COc1cccc(/C=N/NC(=O)CCc2c(C)n[nH]c2C)c1O` as the compound, how does the Potency read?
**A.** inconclusive [inhibitor, full curve]

**Q.** With `COCCNC(=S)N1CCC(NC(=O)Nc2ccc(C)cc2)CC1` as the compound, how does the “activity change, negative = inhibition” value read?
**A.** inactive: -7.64%

**Q.** Which Potency does the source give for `CC1CC(OC(=O)c2ccccc2)(c2ccccc2)C(C)CN1C` (stereo not given) here?
**A.** active: 6.57 µM

**Q.** Which Potency does the source give for `CC(C)(C)CN1C(N)=NC[C@@H]1Cc1ccc(O)cc1` here?
**A.** inconclusive [inhibitor, single point]

**Q.** With `COc1cc(/C=C2\SC(=O)N(CC(=O)Nc3ccccc3F)C2=O)cc(Cl)c1O` as the compound, how does the Potency read?
**A.** inconclusive [inhibitor, partial curve, poor fit]

**Q.** With `CC(C)(C)CN1CCNC[C@H]1Cc1cccc2ccccc12` as the compound, how does the Potency read?
**A.** inconclusive [inhibitor, single point]

**Q.** Which “activity change, negative = inhibition” value does the source give for `O=S(=O)(Cc1noc(-c2ccc(Cl)cc2)n1)Cc1ccco1` here?
**A.** inactive: 8.6%

**Q.** With `COc1ccc(C2C(C(=O)Nc3cccc(C)n3)c3ccccc3C(=O)N2C)cc1` (stereo not given) as the compound, how does the Potency read?
**A.** inconclusive [inhibitor, single point]

**Q.** Which Potency does the source give for `CC(C)c1nc2cc(Cl)ccc2n(Cc2ccccc2)c1=O` here?
**A.** inconclusive [inhibitor, single point]

**Q.** Which Potency does the source give for `Cc1ccc(NC(=O)COC(=O)c2oc3ccccc3c2C)cc1S(=O)(=O)N1CCOCC1` here?
**A.** inconclusive [inhibitor, single point]

**Q.** For `CCOC(=O)c1c(NC(=O)c2cccs2)sc2c1CC(C)(C)OC2`, which Potency is on record?
**A.** inconclusive [inhibitor, single point]

**Q.** For `O=C(CN1CCCc2ccccc21)Nc1cc(S(=O)(=O)N2CCCC2)ccc1Cl`, which Potency is on record?
**A.** active: 13.1 µM

**Q.** For `CN(C)S(=O)(=O)n1cc(/C=C(\NC(=O)c2ccccc2)C(=O)NCCN2CCOCC2)c2ccccc21`, which Potency is on record?
**A.** inconclusive [inhibitor, partial curve, poor fit]

**Q.** With `CCc1ccc(N2C(=O)CN(Cc3ccccc3)C2=S)cc1` as the compound, how does the Potency read?
**A.** inconclusive [inhibitor, single point]

**Q.** For `CCN1CCc2nc3sc(C(=O)Nc4cccnc4Cl)c(N)c3cc2C1`, which Potency is on record?
**A.** inconclusive [inhibitor, partial curve]

**Q.** With `Cn1cccc1/C=C1\SC(=S)N(Nc2ccccc2)C1=O` as the compound, how does the Potency read?
**A.** inconclusive [inhibitor, single point]

**Q.** With `O=C(NCc1ccccn1)C1CCN(Cc2cnn(-c3ccccc3)c2-n2cccc2)CC1` as the compound, how does the Potency read?
**A.** inconclusive [inhibitor, single point]

**Q.** Which Potency does the source give for `COc1ccc(C(N)CCc2ccc(C)o2)cc1` (stereo not given) here?
**A.** inconclusive [inhibitor, partial curve, poor fit]

**Q.** With `O=C(Nc1c(Cl)ccc2nsnc12)c1cccnc1` as the compound, how does the “activity change, negative = inhibition” value read?
**A.** inactive: 22.4%

**Q.** For `Cc1ccc(C(=O)OCC(=O)c2c(N)n(C)c(=O)n(C)c2=O)cc1S(=O)(=O)N1CCCCC1`, which Potency is on record?
**A.** inconclusive [inhibitor, single point]

**Q.** With `COc1ccc(CCn2nnnc2C(C(C)C)N2CCN(c3ncccn3)CC2)cc1OC` (stereo not given) as the compound, how does the Potency read?
**A.** active: 9.28 µM

**Q.** For `COc1ccc(C(=O)C2CCCN(Cc3cccn3-c3ccccn3)C2)c(OC)c1` (stereo not given), which Potency is on record?
**A.** inconclusive [inhibitor, single point]

**Q.** Which Potency does the source give for `CCn1cc(C(=O)N[C@H](C(=O)NCCCN2CCOCC2)C(C)C)c(=O)c2cc3c(cc21)OCO3` here?
**A.** inconclusive [inhibitor, partial curve, poor fit]

**Q.** Which Potency does the source give for `Cc1ccc(O)c(/C=N/NC(=O)C2=NNC(c3ccccc3)(c3ccccc3)C2)c1` here?
**A.** active: 2.94 µM

**Q.** For `CCOC(CCNC(=O)c1cn(C)c(=O)c2c1c1ccccc1n2C)OCC`, which “activity change, negative = inhibition” value is on record?
**A.** inactive: -5.92%

**Q.** With `CCN(C(=O)COC(=O)c1c(C)noc1C)C1CCS(=O)(=O)C1` (stereo not given) as the compound, how does the Potency read?
**A.** inconclusive [inhibitor, single point]

**Q.** Which Potency does the source give for `CCOC(=O)C1CCN(C(=O)Nc2ccc3nc(-c4ccco4)c(-c4ccco4)nc3c2)CC1` here?
**A.** active: 10.4 µM
